Experimental data: PubChem BioAssay AID1159614 (National Center for Advancing Translational Sciences (NCATS), 2016)
Out of some 45,000 compounds screened, about 65 (0.1%) were called active. Calls come from the whole dose curve; as a rule, active = well fitted activation curve with a large enough effect; inconclusive = small, poorly fitted or top-dose-only effect; inactive = no such curve, though single readings can be large or run the other way. The list shows a part of the results.

Molecular target: Galactocerebrosidase (Homo sapiens) (UniProt P54803)
Chain of UniProt P54803 (P54803 whole entry, looked up): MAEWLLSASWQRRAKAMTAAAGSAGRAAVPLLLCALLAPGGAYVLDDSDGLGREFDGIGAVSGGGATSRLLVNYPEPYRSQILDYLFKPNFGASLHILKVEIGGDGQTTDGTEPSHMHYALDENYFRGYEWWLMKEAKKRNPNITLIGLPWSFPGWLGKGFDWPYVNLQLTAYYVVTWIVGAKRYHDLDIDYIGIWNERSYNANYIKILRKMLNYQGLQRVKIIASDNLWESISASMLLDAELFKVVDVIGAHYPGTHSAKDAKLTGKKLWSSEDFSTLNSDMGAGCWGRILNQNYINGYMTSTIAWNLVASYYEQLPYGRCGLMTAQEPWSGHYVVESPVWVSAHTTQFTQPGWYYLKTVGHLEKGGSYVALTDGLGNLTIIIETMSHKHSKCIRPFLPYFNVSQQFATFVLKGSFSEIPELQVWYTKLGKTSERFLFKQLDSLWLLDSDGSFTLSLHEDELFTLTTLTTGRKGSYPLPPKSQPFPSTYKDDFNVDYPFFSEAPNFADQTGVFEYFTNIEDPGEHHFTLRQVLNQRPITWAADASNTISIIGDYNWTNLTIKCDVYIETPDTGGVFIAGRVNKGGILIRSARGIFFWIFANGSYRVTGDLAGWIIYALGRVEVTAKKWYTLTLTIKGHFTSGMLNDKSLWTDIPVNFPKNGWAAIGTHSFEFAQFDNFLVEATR
Test: A Novel Cell-Based Assay to Identify Small Molecules for B -Galactocerebrosidase; note: 0% is about no effect; nearly all actives have a fitted effect of over 65% in size
Details: 145M-Twi-hGALC-G270D cells (Twitcher mouse brain line with human GALC G270D), HMU-beta-Gal fluorescence, 48 h; series mostly up to 57.5 µM; activation: at the top concentration
In short: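 Live 145M-Twi cells (Twitcher mouse brain-derived, GALC-null) stably expressing human GALC-G270D, with a wild-type GALC line, were compound-treated. Residual GALC activity was then read as fluorescence from 0.1 mM final HMU-β-gal at pH 5.2; higher signal means activation.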

Compound | activation
COc1ccc(S(=O)(=O)NCCc2sc(-c3cccnc3)nc2C)cc1 | inactive: -18.6%
COc1ccc(NC(=O)Cn2c(=O)c3cccn3c3ccccc32)cc1 | inactive: -10.4%
O=C(NC1CC(=O)N(c2ccc(F)cc2)C1)c1ccc(S(=O)(=O)N2CCOCC2)cc1 (stereo not drawn) | inactive: -11.7%
COc1ccc(NC(=O)c2cccc3c(=O)c4c([nH]c23)CCCC4)cc1 | inactive: -16%
O=C(O)CCC(=O)N1CCc2cc(S(=O)(=O)NCc3ccc(F)cc3)ccc21 | inactive: -7.83%
O=C1OC2(c3ccccc31)c1cc(Br)c(O)c(Br)c1Oc1c2cc(Br)c(O)c1Br | inactive: -15.7%
CCCC1=Nc2cc(C(=O)NCc3ccccc3)ccc2Sc2ccccc21 | inactive: -14.1%
Cc1ccc(C(C)C)c(OCC(=O)Nc2ccc3c(c2)nc(CCNC(=O)c2ccco2)n3C)c1 | inactive: -9.16%
CCCCN(C)S(=O)(=O)c1ccc(C(=O)Nc2sc3c(c2C(=O)OCC)CCN(C(C)C)C3)cc1 | inactive: -26.3%
CCSc1nc(-c2ccccc2)nc2c1Cc1c(CO)cnc(C)c1O2 | inactive: -8.28%
CCOC(=O)C1CCN(C(=O)C2CCN(S(=O)(=O)c3c(C)noc3/C=C/c3ccc(C)cc3)CC2)CC1 | inactive: -1.31%
COc1cc(OC)cc(C(=O)Nc2ccc3c(c2)CCCN3C(=O)c2cccs2)c1 | inactive: -3.28%
CCOC(=O)c1[nH]c(C)c(CCC(=O)N2CCN(c3ccc(OC)cc3)CC2)c1C | inactive: -16.7%
O=C(Nc1cc(F)ccc1F)C1CCN(C(=O)c2cnn(-c3ccccc3)c2-n2cccc2)CC1 | inactive: -11.2%
Cc1ccc(NC(=O)CSc2nncn2C)c(C)c1 | inactive: -12.1%
CCOC(=O)c1cc(NC(=O)c2ccccc2)c(=O)n2c1oc1ccc(Cl)cc12 | inactive: -4.73%
CCOc1ccccc1CNS(=O)(=O)c1ccc(-c2cnc(C3CC3)o2)cc1 | inactive: -35.4%
Cc1ccc(-n2nc(CO)c(C(=O)NCc3cccnc3)n2)cc1C | inactive: 8.97%
COc1ccc(S(=O)(=O)c2cn(C)c3cc(N4CCCCCC4)c(F)cc3c2=O)cc1 | inactive: -15.2%
COc1ccc(NC(=O)CSC2=Nc3ccccc3C3=NC(CCC(=O)NC4CCCCC4)C(=O)N23)cc1Cl (stereo not drawn) | inactive: -18.5%
COc1ccc(-c2noc(-c3nnn(-c4ccc(C)cc4C)c3C)n2)cc1 | inactive: -14.4%
COc1ccccc1NC(=O)CSCc1cc(=O)c2cccc(Cl)c2[nH]1 | inactive: -6.22%
COc1ccc(OC)c(C2CC(=O)Nc3c2c(=O)n(C)c2ncnn32)c1 (stereo not drawn) | inactive: -4.86%
COc1ccc(Cl)c2sc(NC(=O)c3ccc(S(=O)(=O)N4CCCC4)cc3)nc12 | inactive: -19.5%

Compound | activation
CCc1ccc2occ(CC(=O)Nc3c(C(=O)c4ccccc4)oc4ccccc34)c2c1 | inactive: -19.7%
CCOC(=O)c1c(-c2ccccc2)oc2ccc(NS(=O)(=O)c3ccc(C)cc3)cc12 | inactive: -1.79%
CCN1C(=O)c2ccccc2Sc2ccc(NC(=O)Nc3cc(C)cc(C)c3)cc21 | inactive: -11.7%
O=C(CSC1=Nc2ccccc2C2=NC(Cc3ccccc3)C(=O)N12)Nc1cccc(Cl)c1 (stereo not drawn) | inactive: -9.76%
NCc1ccc(S(N)(=O)=O)cc1 | inactive: -18%
COc1ccccc1Cn1c(C2CC(=O)N(c3ccccc3OC)C2)nc2ccccc21 (stereo not drawn) | inactive: -20.6%
Cc1ccnc(NC(c2cccc(O)c2)c2ccc3ccc(C)nc3c2O)c1 (stereo not drawn) | inactive: -8.7%
Cc1ccc(CNC(=O)c2cc3sc(Cl)cc3n2C)cc1 | inactive: -8.28%
Cc1cccc(CS(=O)(=O)Cc2ccc(C(=O)NCc3ccc(F)cc3)o2)c1 | inactive: -8.6%
CC(C)CCNC(=O)CCCn1c(=O)c2cccn2c2ccccc21 | inactive: -13.4%
COc1ccccc1N1CCN(S(=O)(=O)c2cc(C(=O)Nc3ccc(Oc4ccccc4)cc3)ccc2F)CC1 | inactive: -17.1%
COc1cccc(NC(=O)c2cnc(SCC(=O)N3CCCc4ccccc43)n(C)c2=O)c1 | inactive: -14.5%
CCOC(=O)c1c(C)oc2ccc(N(C(=O)c3ccncc3)S(=O)(=O)c3ccc(F)cc3C)cc12 | inactive: -5.66%
Cc1ccc2nc(-c3ccc(Cl)c(NC(=O)COc4ccc([N+](=O)[O-])cc4)c3)oc2c1 | inactive: -9.24%
O=C(Cn1c(=O)n(-c2ccccc2)c(=O)c2c3c(sc21)CCC3)c1ccc(Br)cc1 | inactive: -19.4%
Cc1noc(-c2ccc(-c3noc(-c4ccc(Cl)cc4)n3)cc2)n1 | inactive: -19.4%
CCN(C(=O)c1cc2c(=O)oc3ccccc3c2s1)c1ccccc1F | inactive: -12.7%
O=C(CN1C(=O)CCc2cc(Br)ccc21)Nc1ccc(OC(F)(F)F)cc1 | inactive: -11.9%
CCOC(=O)c1ccc(Nc2c(-c3ccc(N(C)C)cc3)nc3nc[nH]n23)cc1 | inactive: -12.4%
COc1ccccc1NC(=O)CSc1nnc2c(n1)[nH]c1ccccc12 | inactive: -12.9%
Cc1ccc(C)c(CN2CCCN(Cc3ccccc3C)S2(=O)=O)c1 | inactive: 3.38%
Cc1cc(C)cc(NC(=O)CN2C(=O)c3ccccc3Sc3ccc(C(=O)N4CCCC4)cc32)c1 | inactive: -7.72%
COc1ccc(Cn2c(=O)n(-c3ccc(C)cc3)c(=O)c3c2c2cc(C)ccc2n3C)cc1 | inactive: -1.84%
COc1cccc(CNC(=O)c2nn(C)c3c2CSc2ccccc2-3)c1 | inactive: -4.16%

Compound | activation
COc1ccc(NC(=O)c2cnc3cc(C)ccn3c2=O)c(OC)c1 | inactive: 0.47%
CCc1ccc(CNC(=O)c2cc3c(=O)n(CC)c4ccccc4c3s2)cc1 | inactive: -8.75%
Cc1cccc(Nc2c(-c3cccs3)nc3nc(C)cc(C)n23)c1 | inactive: -17.8%
O=C(NC(=O)c1ccccc1)Nc1ccc(-n2nc(C(F)(F)F)cc2C(F)(F)F)cc1 | inactive: -7.23%
COc1ccccc1CNC(=O)CCc1c(C)nc2c(c(C)nn2-c2ccc(C)c(C)c2)c1C | inactive: -8.75%
CC1CCC(NC(=O)c2ccc3c(c2)N(Cc2ccccc2)C(=O)c2ccccc2S3(=O)=O)CC1 (stereo not drawn) | inactive: 5.34%
CCCCn1c(=N)c(S(=O)(=O)c2ccc(Cl)cc2)cc2c(=O)n3cccc(C)c3nc21 | inactive: -15.1%
CC(C)(C)OC(=O)N1CCC(c2c(C(=O)NCc3ccccc3)cnn2-c2ccccc2)CC1 | inactive: -15.6%
CCN1CCC[C@H]1CNC(=O)c1c(O)c(Cl)cc(Cl)c1OC | inactive: -9.6%
CCc1ccc(NC(=O)CSc2nc3c(sc4ccccc43)c(=O)n2CCCOC)cc1 | inactive: -12.1%
Cc1ccc(CNC(=O)c2cnc(N3CCCCC3)c3ccccc23)cc1 | inactive: -3.84%
CCOC(=O)CNc1nc2ccccc2n2c(C)nnc12 | inactive: -15.3%
O=C(c1ccc2c(c1)CCN2S(=O)(=O)c1ccccc1)N1CCN(c2cccc(Cl)c2)CC1 | inactive: -3.74%
COc1ccc(NC(=O)CN(C)S(=O)(=O)c2ccc3c(c2)CCC(=O)N3)c(OC)c1 | inactive: -17%
COc1ccc(OC)c(NC(=O)Cn2c(=O)n(CC3CCCO3)c(=O)c3cc(OC)c(OC)cc32)c1 (stereo not drawn) | inactive: -5.94%
CCOc1ccccc1CNC(=O)CN1C(=O)CSc2ccc(S(=O)(=O)N3CCOCC3)cc21 | inactive: -6.09%
O=[N+]([O-])c1ccc(S(=O)(=O)NCc2nc3cccnc3n2Cc2ccccc2Cl)cc1 | inactive: -10.9%
Cc1cccc(C(=O)N2CCc3cc(CNC(=O)c4ccc(Br)o4)ccc32)c1 | inactive: -17.9%
CC(C)(C)CC(=O)OCC(=O)[C@@]1(O)CC[C@H]2[C@@H]3CCC4=CC(=O)C=C[C@]4(C)[C@H]3[C@@H](O)C[C@@]21C | inactive: -4.17%
Cc1ccc(C)c(OCCn2cc(C(=O)c3cccs3)c3ccccc32)c1 | inactive: -7.91%
Cc1c(C(=O)OCC2CCCCC2)[nH]c2c1C(=O)CC(c1ccc(F)cc1)C2 (stereo not drawn) | inactive: -14.9%
COc1ccc(C)cc1NC(=O)Cn1c(=O)nc(-c2ccccc2F)c2cc(Cl)ccc21 | inactive: -13.6%
COC(=O)c1cc(NC(=O)C2CCCN(S(=O)(=O)c3c(C)n[nH]c3C)C2)cc(C(=O)OC)c1 (stereo not drawn) | inactive: -2.71%
O=c1nc2c(-c3ccc(F)cc3Cl)n[nH]n2c2ccccc12 | inactive: -16.1%

Compound | activation
CCOC(=O)c1c(C)[nH]c(CCC(=O)Nc2c(Cl)cc(OC)cc2OC)c1C | inactive: -6.75%
N#Cc1cccc(Nc2ncnc3c2cnn3-c2cccc(Cl)c2)c1 | inactive: -12.2%
Cc1ccc(Cl)cc1-n1ncc2c(NC3CCCCC3)ncnc21 | inactive: -19.7%
Cc1cccc2sc(N3CCN(C(=O)CS(=O)(=O)c4ccc(F)cc4)CC3)nc12 | inactive: -11%
CCc1ccccc1NC(=O)CN(c1cccc(C)c1C)S(C)(=O)=O | inactive: -1.03%
CCOC(=O)C1CCCN(S(=O)(=O)c2ccc3c(c2)CCN3C(=O)CC)C1 (stereo not drawn) | inactive: -14.8%
O=C(CSc1nncn2c1cc1occc12)Nc1ccccc1C(F)(F)F | inactive: -12.2%
COc1ccc(CNC(=O)Cn2c(=O)nc(-c3ccccc3F)c3cc(Cl)ccc32)cc1OC | inactive: -5.22%
CCCc1nc2nc(C)c(NS(=O)(=O)c3ccc(F)cc3)c(=O)n2[nH]1 | inactive: -21.9%
Cc1cc(C(=O)N2CCN(c3ccc(F)cc3)CC2)c2c(C)nn(-c3cccc(Cl)c3C)c2n1 | inactive: -12.1%
CCc1ccc(S(=O)(=O)c2cnc3ccc(OC)cc3c2N2CCCC(C)C2)cc1 (stereo not drawn) | inactive: -0.105%
CCOC(=O)c1ccc(NC(=O)C(CC)Sc2nnc3c4ccccc4n(C)c3n2)cc1 (stereo not drawn) | inactive: -10.5%
Cc1ccc(C)c(NC(=O)Cn2nnc(C(=O)NCCc3ccccc3)c2N)c1 | inactive: -14.6%
COC(=O)c1cccc(Nc2c(-c3ccc(OC)cc3)nc3nc[nH]n23)c1 | inactive: -18.7%
CCC1=Nc2cc(C(=O)NCc3ccccc3Cl)ccc2Sc2ccc(C)cc21 | inactive: -15.5%
Cc1cc(C)c(NC(=O)Cn2c(=O)n(Cc3ccc4c(c3)OCO4)c(=O)c3ccccc32)c(C)c1 | inactive: 4.28%
CC[C@@H]([C@H](C)O)n1ncn(-c2ccc(N3CCN(c4ccc(OC[C@@H]5CO[C@@](Cn6cncn6)(c6ccc(F)cc6F)C5)cc4)CC3)cc2)c1=O | inactive: -6.93%
COc1ccc(-n2c(=O)c3c(C)c(C)sc3n(CC(=O)NCc3ccc(C)cc3)c2=O)c(OC)c1 | inactive: -3.96%
O=C(NCc1ccc(F)cc1)C1CCCN(c2ncnc3onc(-c4ccc(F)cc4)c23)C1 (stereo not drawn) | inactive: -1.51%
CCOc1ccccc1CNC(=O)c1ccc(-c2nc(CSc3ccc(C)cc3)c(C)o2)cc1 | inactive: -13.3%
O=C(CSc1nc2c(sc3ccccc32)c(=O)n1CCCC(=O)NC1CCCC1)Nc1ccc(F)cc1 | inactive: -9.08%
